Assay results from the supplement of paper PMC10338343.
± gives the standard deviation. This is a selection; strong and weak results do not stand in their true shares.

What follows are sequences tested on MIWI (PIWIL1) piRISC loaded with L1MC piRNA (30 nt) (assay: pre-steady-state target cleavage rate (min^-1); MIWI and MILI are mouse PIWI proteins and EfPiwi is from a freshwater sponge; tags in brackets are library labels; higher = faster piRNA-guided slicing of the target). Details: guide: L1MC piRNA 5'p-UAACUAAAUACUAUGCAAGCUGUAGGUCCU; auxiliary factor: 500 nM mouse GTSF1.
Method in brief: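 With or without 500 nM GTSF1 partner protein, 1 nM active affinity-purified piRISC carrying one synthetic guide was mixed with 0.1 nM transcribed, DNA-blocked target RNA library in HEPES–potassium acetate buffer at 33 °C for 0–8 or 0–960 min. Uncleaved targets were sequenced and normalised to depth and to weakly complementary targets, three trials were pooled, and k3 was capped at 0.0001 min^-1. The pre-steady-state cleavage rate came from a burst-and-steady-state fit.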

Sequence | pre-steady-state target cleavage rate
AGGACCUACAGCUUGCUAUGUAUUUACAAA | 0.0117 ± 0.0059
UCCUGGAUGUCGUUGCAUCGUAUUUAGUUA | 0.00332 ± 0.003
UCCUCCUACAGCUUGCAUAGUAAAUACAAA | 0.0937 ± 0.027
UCCUGCUACAGCUUGCAUUGUAUUUUCAAA | 0.136 ± 0.024
UCCUGGAACAGCUUGCAUACAAUUUAGUAA | 0.0102 ± 0.0056
UCCUCCUACAGCUUCCAUAGUAAUUAGUUA | 0.0848 ± 0.027
UCCUGGAUGAGCUUGGAUUGUAUUUAGUUA | 0.00776 ± 0.0043
UCCUGGAACAGGUUGCAUAGUAUUUAGAAA | 0.362 ± 0.043
UCCUGGUACUCGUUGCAUAGUAUUUAGUAA | 0.0165 ± 0.0088
UCCUGGAUGUCGAAGCUUAGUAUUUACUUA | < 0.0001
UCCUGGAUGAGCUUGCUUAGUAUUUACAAA | 0.019 ± 0.0064
UGGACCUACAGCUUGCAUAGUAAUUACAAA | 0.135 ± 0.029
UCCUGGUACAGCUUGGAUAGUAUUUUCAAA | 0.00705 ± 0.0056
UCGACCUACUCGUUGCAUAGUAUUUACAAA | 0.165 ± 0.025
AGGACCUACAGCUUGCAGUAGUAUUUAGUUA | 0.349 ± 0.14
UCCUGGAUGUCCUUGCAUAGAAUUUAGUUA | 0.00903 ± 0.0042
AGGACCUACAGCUUGCAUAGUAUAAACAAA | 0.353 ± 0.068
UCCUGGAUGUGCAAGCAUAGUAUUUAGUUA | 0.0116 ± 0.0043

Sequence | pre-steady-state target cleavage rate
UCCUGCUACAGCUUGCAUUGUAUUUACAAA | 0.149 ± 0.034
UCGACCUACAGCUUGCUAUGUAUUUAGUAA | 0.0653 ± 0.011
AGGACCUACAGGUUGCAUAGUAUUUUCAAA | 0.396 ± 0.061
UCCUGGAUGUCGAACCAUACGUAUUUAGUUA | < 0.0001
UCCUGGAUGUCCAUGCAUACUAUUUAGUUA | 0.00672 ± 0.0046
UCCUGGAACAGCUUGCAUAGUAAAUAGAAA | 0.0609 ± 0.016
UCCUGGAUGUCGUUGCCUAGUAUUUAGUUA | 0.00376 ± 0.0027
UCCACCUUCAGCUUGCAUAGUAUUUUCAAA | 0.345 ± 0.049
UCCUGCUUCAGCUUCCAUAGUAUUUAGUUA | 0.0509 ± 0.014
UCCUGGAUGUGCUUGCAUAGUGAUUUAGUUA | 0.00393 ± 0.0038
UCCACCUACAGCUUGCAUAGUUAAUAGUAA | 0.131 ± 0.034
UCCUGGUACACGUUGCAUAGUAUUUACAAA | 0.0642 ± 0.034
UCCUGGAUGAGCUUGCAUAGUUAUUAGUAA | 0.00855 ± 0.005
UCCUGGUACAGCUUGCAUAGUAAAUAGAAA | 0.131 ± 0.043
UCGACCUACAGCUUGCUAAGUAUUUAGUAA | 0.108 ± 0.016
UCGACCUACAGCUUGCACUAGUAUUUAGUUA | 0.254 ± 0.081
UCCUGGAUCAGCUUGCAUAGUAUUUGUUA | 0.137 ± 0.025

Same assay, conditions: guide: L1MC piRNA 5'p-UAACUAAAUACUAUGCAAGCUGUAGGUCCU; auxiliary factor: none (no GTSF1)

Sequence | pre-steady-state target cleavage rate
UCCUCGAUCAGCUUGCAUAGUAUUUAGUUA | 0.0718 ± 0.013
AGGACCUACAGCAUGCAUAGUAUUUAGUUA | 0.073 ± 0.015
UCCUGGAUGUCGAACGUAUCUUUUUAGUUA | < 0.0001
UCCUGGAUGUCGAACCAUACUAUUUACUUA | < 0.0001
